Data published in the supplement of paper PMC9588766.
Counter-ions that a name gives are not always drawn. ± gives the standard deviation of the averaged measurements. Whole data set: some 2,000 compounds, median “cell viability relative to DMSO control (compound alone)” near 0.98, cut for the lowest 2% near 0.23. Some of the results follow.

These molecules were tested on PDC-DUC18828 (assay: cell viability relative to DMSO control (compound alone) (fraction); PDC-DUC18828 is a patient-derived cholangiocarcinoma cell line; higher = less growth inhibition). Conditions: 1 µM; 72 h.
Experimental: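 Selleck Bioactive library screen in the patient-derived FGFR2-G3BP2 fusion-positive ICC cell line PDC-DUC18828 (500 cells/well). Each compound was tested at 1 uM alone, in triplicate, for 72 h. Viability was read by CellTiter-Glo and normalised to plate DMSO controls.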
Work on O=C(NCc1ccncc1)C12CC3CC(C1)CC(c1ccc(Cl)cc1)(C3)C2 yielded a cell viability of 0.951 ± 0.016.
For CCOC(=O)[C@H](CCc1ccccc1)N[C@@H](C)C(=O)N1[C@H](C(=O)O)C[C@@H]2CCC[C@@H]21 [Ramipril], the cell viability was 0.923 ± 0.056.
NC(=O)c1ncn([C@@H]2O[C@H](CO)[C@@H](O)[C@H]2O)n1 [Ribavirin] showed a cell viability of 1.024 ± 0.0053.
Cc1ccc(S(=O)(=O)n2c(N)nc3ccccc32)cc1 [ML130 (Nodinitib-1)] was tested, and the cell viability was 0.946 ± 0.021.
With CC[C@H]1OC(=O)[C@H](C)[C@@H](O[C@H]2C[C@@](C)(OC)[C@@H](O)[C@H](C)O2)[C@H](C)[C@@H](O[C@@H]2O[C@H](C)C[C@H](N(C)C)[C@H]2O)[C@](C)(OC)C[C@@H](C)C(=O)[C@H](C)[C@@H](O)[C@]1(C)O [Clarithromycin] the cell viability was 1.04 ± 0.084.
O=[N+]([O-])c1ccc2c(c1)S(=O)(=O)C=C2 [Stattic] showed a cell viability of 0.671 ± 0.038.
In the case of CCCCCCCCC/C(=C\C1=C(C)C(=O)C(OC)=C(OC)C1=O)C(=O)O, the cell viability is reported as 1.01 ± 0.059.
For CN(C)CC[C@H](CSc1ccccc1)Nc1ccc(S(=O)(=O)NC(=O)c2ccc(N3CCN(Cc4ccccc4-c4ccc(Cl)cc4)CC3)cc2)cc1[N+](=O)[O-], the cell viability was 0.829 ± 0.011.
Molecule NC(=O)Cc1cccc(C(=O)c2ccccc2)c1N [Nepafenac] has a cell viability of 0.917 ± 0.026.
C[C@H]1COC2=C1C(=O)C(=O)c1c2ccc2c1CCCC2(C)C [Cryptotanshinone] showed a cell viability of 0.8422 ± 0.0054.
Molecule Nc1ccccc1NC(=O)c1ccc(CNC(=O)OCc2cccnc2)cc1 [Entinostat (MS-275)] has a cell viability of 1.07 ± 0.025.
With CCCCOc1c(C(=O)c2c(F)cc(C)cc2F)c[nH]c2nncc1-2 the cell viability was 0.852 ± 0.0069.
In the case of CC(C)C[C@@H]1NC(=O)[C@@H](C(C)C)NC(=O)[C@@H]2CCCN2C(=O)[C@@H](CC(=O)O)NC(=O)[C@@H](Cc2c[nH]c3ccccc23)NC1=O, the cell viability is reported as 1.03 ± 0.033.
For CN(C)C(=O)COC(=O)Cc1ccc(OC(=O)c2ccc(NC(=N)N)cc2)cc1 [Camostat Mesilate], the cell viability was 0.994 ± 0.03.
Molecule N=C(N)NC(=O)c1nc(Cl)c(N)nc1N [Amiloride HCl] has a cell viability of 1.02 ± 0.046.
C[C@H](NC(=O)Cc1cc(F)cc(F)c1)C(=O)N[C@H](C(=O)OC(C)(C)C)c1ccccc1 showed a cell viability of 0.963 ± 0.034.
With CNC(CC(=O)O)C(=O)O [NMDA (N-Methyl-D-aspartic acid)] the cell viability was 0.997 ± 0.05.
In the case of CN1C2=CC(=O)/C(=N\NC(N)=O)C=C2CC1S(=O)(=O)O (stereo unspecified) [Carbazochrome sodium sulfonate (AC-17)], the cell viability is reported as 1.05 ± 0.073.
Cc1cc(Nc2ccc(NC(=O)c3ccc(Nc4ccnc5ccccc45)cc3)cc2)nc(N)n1 gave a cell viability of 1.04 ± 0.019.
Molecule C[C@H](NC(=O)[C@@H](O)c1cc(F)cc(F)c1)C(=O)N[C@@H]1C(=O)N(C)c2ccccc2-c2ccccc21 has a cell viability of 0.935 ± 0.017.
C[C@]12CC[C@@H]3c4ccc(O)cc4CC[C@H]3[C@@H]1CC[C@@H]2OC(=O)CCC1CCCC1 [Estradiol Cypionate] was tested, and the cell viability was 1.01 ± 0.025.
CC(C)N(CCCNC(=O)Nc1ccc(C(C)(C)C)cc1)C[C@H]1O[C@@H](n2ccc3c(N)ncnc32)[C@H](O)[C@@H]1O was tested, and the cell viability was 0.978 ± 0.048.
CC(=O)Nc1ccc(NC(=S)NC(=O)c2ccc(C(C)(C)C)cc2)cc1 [Tenovin-1] showed a cell viability of 0.876 ± 0.015.
CCOc1cc(C(=O)N2CCC(N3CCN(C)CC3)CC2)ccc1Nc1ncc2c(n1)N(C1CCCC1)c1ccccc1C(=O)N2C showed a cell viability of 0.959 ± 0.046.
O=C(NOCCO)c1ccc2cncn2c1Nc1ccc(I)cc1F was tested, and the cell viability was 0.579 ± 0.053.
With O=c1cc(-c2ccc(O)c(O)c2)oc2cc(O)cc(O)c12 [Luteolin] the cell viability was 0.979 ± 0.091.
O=C(Cc1ccc(-c2ccc(OCCN3CCOCC3)cc2)cn1)NCc1ccccc1 gave a cell viability of 0.275 ± 0.019.
Nc1ncn([C@H]2C[C@H](O)[C@@H](CO)O2)c(=O)n1 [Decitabine] gave a cell viability of 0.901 ± 0.064.
For CC(C)/N=c1\cc2n(-c3ccc(Cl)cc3)c3ccccc3nc-2cc1Nc1ccc(Cl)cc1 [Clofazimine], the cell viability was 1 ± 0.039.
O=C1Cc2cc(CCN3CCN(c4nsc5ccccc45)CC3)c(Cl)cc2N1 [Ziprasidone HCl] was tested, and the cell viability was 1.02 ± 0.056.
In the case of CC1CCc2c(N3CCC(O)CC3)c(F)cc3c(=O)c(C(=O)O)cn1c23 (stereo unspecified) [Nadifloxacin], the cell viability is reported as 1.03 ± 0.078.
CCCN(CCc1cccs1)[C@H]1CCc2c(O)cccc2C1 [Rotigotine] showed a cell viability of 1.1 ± 0.018.
Work on Cc1cc(=O)n(-c2ccccc2)n1C [Antipyrine] yielded a cell viability of 0.976 ± 0.013.
For Clc1ccc(COC(Cn2ccnc2)c2ccc(Cl)cc2Cl)c(Cl)c1 (stereo unspecified) [Miconazole], the cell viability was 1.01 ± 0.013.
Clc1ccc(COC(Cn2ccnc2)c2ccc(Cl)cc2Cl)c(Cl)c1 (stereo unspecified) [Miconazole Nitrate] gave a cell viability of 0.959 ± 0.079.
Molecule O=c1c2ccccc2oc2ccccc12 [Xanthone] has a cell viability of 1.03 ± 0.057.
With CC(C)(C)C[C@@H]1N[C@@H](C(=O)N[C@H]2CC[C@H](O)CC2)[C@H](c2cccc(Cl)c2F)[C@]12C(=O)Nc1cc(Cl)ccc12 the cell viability was 0.859 ± 0.047.
With CO[C@H]1O[C@@H]2O[C@@]3(C)CC[C@H]4[C@H](C)CC[C@@H]([C@H]1C)[C@@]24OO3 [Artemether] the cell viability was 0.858 ± 0.027.
In the case of Cn1ncc(Cl)c1-c1cc(C(=O)N[C@H](CN)Cc2cccc(F)c2)sc1Cl, the cell viability is reported as 0.831 ± 0.022.
Work on NC12CC3CC(CC(C3)C1)C2 [Amantadine HCl] yielded a cell viability of 1 ± 0.097.
For CN1CCN(C2=Nc3cc(Cl)ccc3Nc3ccccc32)CC1 [Clozapine], the cell viability was 1 ± 0.063.
